Test results from PubChem BioAssay AID1347073 (National Center for Advancing Translational Sciences (NCATS), 2019).
The whole screen tested about 45,000 compounds, of which about 200 (0.44%) were called active. Inconclusive results (about 7%) are left out. Calls come from the whole dose curve; as a rule, active = well fitted activation curve with a large enough effect; inconclusive = small, poorly fitted or top-dose-only effect; inactive = no such curve, though single readings can be large or run the other way. The list shows a part of the results.

Assay: qHTS of TDP-43 Inhibitors: NCGC Sytravon Library Screen; note: 0% is about no effect; nearly all actives have a fitted effect of over 55% in size
Conditions: yeast TDP-43 toxicity rescue, BacTiter-Glo growth, 24 h; series mostly up to 46.1 µM; growth rescue (activation): at the top concentration
In short: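 TDP-43-expressing yeast, pregrown in raffinose, seeded at OD600 0.02 in galactose medium with compound for 24 hr at 30 deg C. Growth read by BacTiter-Glo luminescence, so rescue of toxicity appears as activation.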

Row | Structure (SMILES) | growth rescue (activation)
1 | COc1cc(C(=O)Nc2ccc(NC(C)=O)cc2)ccc1OCc1ccccc1 | inactive: -0.917%
2 | Cc1ccc(C)c(N2CC(C(=O)Nc3cc(C)on3)CC2=O)c1 (stereo not drawn) | inactive: 12.8%
3 | CC(=O)N1CCN(S(=O)(=O)c2cccc(C(=O)OCN3C(=O)c4ccccc4C3=O)c2)CC1 | inactive: 7.45%
4 | O=C(CCn1c(=O)c2sccc2n(Cc2ccc(F)cc2)c1=O)NCc1ccc2c(c1)OCO2 | inactive: 11%
5 | CCOc1ccc(C(C)=O)cc1CSC(=N)N | inactive: 5.39%
6 | Cc1ccc(-n2nc3cc(C)c(NC(=O)c4ccc(-c5ccccc5)o4)cc3n2)cc1 | inactive: 2.68%
7 | CCCCCn1c(=O)[nH]c2cc(C(=O)NC3CCN(Cc4ccccc4)CC3)ccc2c1=O | inactive: 23.8%
8 | Cc1cc(NC(=O)Cc2ccccc2)ccc1NC(=O)c1cccs1 | inactive: -15.5%
9 | O=C(NCC1CCCCC1)c1cc([N+](=O)[O-])ccc1Cl | inactive: 15.3%
10 | COC(=O)c1cc(Br)c(=O)n(-c2ccccc2OC)c1 | inactive: 2.42%
11 | COc1cccc(Nc2nnc(-c3cc4ccc(O)cc4oc3=O)s2)c1 | inactive: 4.69%
12 | CC(NC(=S)NC1CCCCC1)C(c1ccccc1)N1CCOCC1 (stereo not drawn) | inactive: -24.7%
13 | CC(O)CNc1nc2sc3c(c2c(=O)n1Cc1ccco1)CCCCC3 (stereo not drawn) | inactive: 14.4%
14 | Cc1cc(/C=N/O)c(C)n1-c1ccccc1 | inactive: 10.8%
15 | O=C(CCn1c(=O)oc2ccccc21)N1CCN(C(c2ccccc2)c2ccccc2)CC1 | inactive: 25.1%
16 | CC(C)CC(N)c1csc(NC(=O)Nc2ccccc2-c2ccccc2)n1 (stereo not drawn) | inactive: 14.5%
17 | Cc1ccc(C)c(NC(=O)C2CC(=O)N(C3CCCCC3)C2)c1 (stereo not drawn) | inactive: 6.16%
18 | O=C(Nc1ccc(Oc2ccccc2)cc1)c1ccc2nc([C@@H]3O[C@H](CO)[C@H](O)[C@H](O)[C@H]3O)[nH]c2c1 | inactive: 9.04%
19 | CC(SCC(=O)O)c1nc2ccccc2[nH]1 (stereo not drawn) | inactive: -2.2%
20 | C1CCN(Cc2nnnn2CC2CCCO2)CC1 (stereo not drawn) | inactive: 13.7%
21 | CC1(C)CC(=O)C=C(Nc2cccc(F)c2)C1 | inactive: -1.1%
22 | Cc1ccc(NC(=O)CN(Cc2ccco2)Cc2ccccc2O)cc1C | inactive: -11.8%

Row | Structure (SMILES) | growth rescue (activation)
23 | CC1CCc2c(nc3sc4c(c3c2N)CCCC4)C1 (stereo not drawn) | inactive: 9.14%
24 | COc1cccc(NC(=O)Nc2nnc([C@@H]3C[C@H](O)[C@@H](CO)O3)s2)c1 | inactive: 7.95%
25 | Cn1c(SCC(=O)C(C)(C)C)nnc1-c1ccc(F)cc1 | inactive: -15.3%
26 | COc1ccc(NC(=S)N2CCCN(Cc3cc(C)ccc3C)C2)cc1 | inactive: 3.43%
27 | COc1ccc2nc(SCC(=O)Nc3cc(C)on3)c(C#N)cc2c1 | inactive: -7.46%
28 | O=C(Nc1cccc(O)c1)c1ccc(NC(=O)C2CCCO2)cc1 (stereo not drawn) | inactive: -30.4%
29 | Cc1cccc(N(C(=O)c2csnn2)C(C(=O)NC(C)(C)C)c2cccnc2)c1 (stereo not drawn) | inactive: 1.96%
30 | CCCn1c(SCC(=O)Nc2ccccc2Cl)nc(O)cc1=O | inactive: -19.4%
31 | O=C(NC1CCCCC1)c1cc(-c2ccc(Cl)cc2)on1 | inactive: 9.25%
32 | CN(Cc1cc2ccccc2[nH]c1=O)C(=O)c1cccs1 | inactive: -0.957%
33 | Cc1cc(C)cc(NC(=O)CSc2nncn2-c2ccccn2)c1 | inactive: -8.72%
34 | COc1ccccc1CC(NC(C)=O)C(=O)NC1CCN(S(=O)(=O)c2ccc(NC(C)=O)cc2)CC1 (stereo not drawn) | inactive: 7.31%
35 | Cc1ccccc1Cn1c(C)c(C(=O)NCC(C)C)sc1=O | inactive: 13.7%
36 | COc1ccc(S(=O)(=O)N2CN(CCc3ccc(OC)c(OC)c3)c3nc4ccccc4nc32)cc1 | inactive: 7.29%
37 | COc1ccc(-c2csc(N(CCCN(C)C)C(=O)c3ccc(C)cc3)n2)cc1 | inactive: -0.0496%
38 | CC1(C(=O)NS(=O)(=O)c2ccccc2Cl)CCN1C(=O)C1CC1 (stereo not drawn) | inactive: 10.2%
39 | O=C(Cn1ncc(Cl)c(Cl)c1=O)N1CCOCC1 | inactive: 7.65%
40 | O/N=C1/CCSc2ccccc21 | inactive: 22.8%
41 | Cc1ccc(OCCOCCOc2cccc3cccnc23)c(Br)c1 | inactive: -8.46%
42 | CC(C)Cc1cc(C(=O)N2CCCC(CCC(=O)N(C)CCc3ccccn3)C2)no1 (stereo not drawn) | inactive: 8.04%
43 | CCC(C(=O)NCCC1=CCCCC1)c1ccccc1 (stereo not drawn) | inactive: 12.3%
44 | CC(C)c1ccc(C2Sc3ccccc3NC3=C2C(=O)c2ccccc23)cc1 (stereo not drawn) | inactive: -3.23%

Row | Structure (SMILES) | growth rescue (activation)
45 | CC(C)C(=O)N1CCN(c2ccccc2NC(=S)NC(=O)c2cccs2)CC1 | inactive: -13.4%
46 | CCSc1nnc(NC(=O)c2ccc3ccccc3n2)s1 | inactive: 24.9%
47 | CN(C(=S)Nc1ccc(SC(F)F)cc1)c1ccc(O)cc1 | inactive: 14.5%
48 | CCOc1ccc(-n2c(SCC(=O)N3CCC(C(=O)O)CC3)nc3ccccc3c2=O)cc1 | inactive: 4.98%
49 | CC(C)(C)C(=O)N1CCN(c2nc3ccccc3o2)CC1 | inactive: 25%
50 | CCCc1nnc(SCC(=O)Nc2cccc(C(F)(F)F)c2)o1 | inactive: 24.6%
51 | Cc1ccc(NC(=O)CSc2nnc(-c3ccoc3C)n2CCCN(C)C)cc1Cl | inactive: 7.52%
52 | Cc1[nH]c2ccc(F)cc2c1CCN(Cc1cccnc1)C(=S)NC(C)(C)C | inactive: -2.29%
53 | COc1cc(C=NNC(=O)c2ccccc2-n2cccc2)ccc1O | inactive: -7.42%
54 | Clc1ccsc1-c1ccnc(-n2cccc2)n1 | inactive: -5.39%
55 | C[C@]12CC[C@H](O)CC1=CCC1C2CC[C@@]2(C)C1CC[C@@H]2NC(=O)[C@@H](N)Cc1ccccc1 (stereo partly drawn) | inactive: -1.32%
56 | COC(=O)c1cccc(CN2C(=O)C(C)Sc3cc(Cl)ccc32)c1 (stereo not drawn) | inactive: 10.6%
57 | O=C(c1ccc(Oc2ccccc2)cc1)C1CCCN(C(=O)c2cnccn2)C1 (stereo not drawn) | inactive: -3.73%
58 | COc1cccc(NC(=O)CC2C(=O)NC3CCCCC3N2C(=O)c2ccccc2)c1 (stereo not drawn) | inactive: 9.1%
59 | Cn1c2ccccc2c2ncn(Cc3ccc(F)cc3)c(=O)c21 | inactive: 19.3%
60 | Cc1ccc2[nH]c3c(c2c1)CCCC3NC(=O)CCl (stereo not drawn) | inactive: 22.3%
61 | CC1=NN(c2cccc(Cl)c2)C(=O)C12CC(C)=C(C)CS2 (stereo not drawn) | inactive: 17%
62 | CCCNC(=O)C1(C)CCN(Cc2cc(C)n(C)n2)C1 (stereo not drawn) | inactive: 6.15%
63 | COc1ccc(N2CCN(C(=O)c3ccc(S(=O)(=O)N4CCCCCC4)cc3)CC2)cc1 | inactive: 10.2%
64 | COc1ccc(/C=C/C(=O)OCC(=O)N2CC(=O)Nc3ccccc32)cc1S(=O)(=O)N1CCOCC1 | inactive: 6.36%
65 | CCOc1ccccc1-c1nnc(CS(=O)(=O)c2ccccc2)o1 | inactive: 2.02%
66 | O=C(Cn1cc(C(=O)C2CC2)c2ccccc21)Nc1ccc(F)cc1 | inactive: 12.6%

Row | Structure (SMILES) | growth rescue (activation)
67 | Cc1ccc(CN2CCN(Cc3cnc(C)[nH]3)CC2CCO)cc1 (stereo not drawn) | inactive: -13.3%
68 | COc1ccc(C(CNS(=O)(=O)c2ccc(NC(C)=O)c(OC)c2)N2CCCC2)cc1 (stereo not drawn) | inactive: 15.2%
69 | COc1ccc(CC(NC(C)=O)C(=O)NC2CCN(C(=O)C3CCCCC3)CC2)c(OC)c1 (stereo not drawn) | inactive: -10.6%
70 | COc1ccc(NC(=O)N2CCCC(CCC(=O)N(C)CCc3ccccn3)C2)cc1 (stereo not drawn) | inactive: -1.27%
71 | Cc1cnc(C(=O)OCC(=O)Nc2cccc(S(=O)(=O)N3CCCCC3)c2)cn1 | inactive: -1.48%
72 | O=C(Nc1ccccc1C(=O)O)C1=NN=CC1 | inactive: 4.13%
73 | COc1ccc(C)cc1S(=O)(=O)N1CCN(C(=O)c2ncoc2-c2ccccc2C)CC1 | inactive: -1.48%
74 | COc1cccc(C(=O)Nc2ccc(S(=O)(=O)N3CCN(C)CC3)cc2)c1 | inactive: 9.16%
75 | COc1ccc(CCNC(=O)COC(=O)c2ccc(S(=O)(=O)N3CCCC3)cc2)cc1OC | inactive: -16.8%
76 | Cn1nnnc1SCC(=O)NC1CCCC1 | inactive: 5.5%
77 | CS(=O)(=O)c1ccc(C(=O)Nc2ccc(N3CCCC3)cc2)c(Cl)c1 | inactive: 4.83%
78 | COc1cccc(/C=C/C(=O)OCC(=O)NCc2ccco2)c1OC | inactive: 8.43%
79 | COc1ccc(CNc2cc(NCCCO)c([N+](=O)[O-])c3nonc23)cc1 | inactive: 2.18%
80 | CN(Cc1cccc(F)c1)CC(O)COCc1ccccc1Cl (stereo not drawn) | inactive: -7.59%
81 | CC(=C/c1ccccc1)/C=N/NC(=O)c1nnn(-c2nonc2N)c1CN1CCC(C)CC1 | inactive: -2.22%
82 | COC(=O)c1ccc2c(=O)n(CC3CCCO3)c(SCC(=O)NCCc3ccc(S(N)(=O)=O)cc3)nc2c1 (stereo not drawn) | inactive: 3.73%
83 | OC[C@@H]1CN(Cc2ccc(Cl)cc2)C[C@H](n2cnc3c(NCc4ccncc4)ncnc32)O1 | inactive: 5.47%
84 | O=C(Nc1ccc(S(=O)(=O)Nc2ccccn2)cc1)c1cccc(Br)c1 | inactive: 11.7%
85 | Cc1ccc(C)n1-c1nnc(N2CCC(C(=O)NCc3ccc(F)cc3)CC2)s1 | inactive: -0.258%
86 | Cc1ccc(C(=O)NC(=S)Nc2ccc(-c3cc4ccccc4oc3=O)cc2)c(C)c1 | inactive: -0.471%
87 | Cn1c(=O)c2cc(S(=O)(=O)Nc3cc(C(=O)O)cc(C(=O)O)c3)ccc2n(C)c1=O | inactive: 1.44%
88 | Cc1cc(O)c2/c(=N\N)c(-c3csc(C)n3)coc2c1 | inactive: 2.53%

Row | Structure (SMILES) | growth rescue (activation)
89 | Cc1ccc(N(C(=O)c2ccco2)C2C=CS(=O)(=O)C2)cc1 (stereo not drawn) | inactive: -2.37%
90 | Cc1cc(NC(=O)CCC(=O)N(c2ccc(C)c(F)c2)C(C(=O)NC2CCCC2)c2ccco2)no1 (stereo not drawn) | inactive: -0.393%
91 | C=C(C)Cn1c2ccc(NC(=O)CCc3cccc(Cl)c3)cc2c(=O)n1C | inactive: 12.9%
92 | CCCCCOCC(O)CCC(=O)NN (stereo not drawn) | inactive: -7.76%
93 | O=C(CC1CC2CCC1C2)NCCc1ccc(Cl)cc1 (stereo not drawn) | inactive: 30.3%
94 | O=C(CSc1ccccc1)NCc1ccccn1 | inactive: -4.9%
95 | CCCn1c(S(=O)(=O)O)nc2ccccc21 | inactive: -13%
96 | Cc1ccc2c(c1)c1c3n2CCN(CC(O)CNC(C)C)C3CCC1 (stereo not drawn) | inactive: -0.234%
97 | COc1cc2cc(-c3ccc(O)cc3O)nc(C)c2cc1OC | inactive: 10.8%
98 | Cc1ccc(Cl)cc1NC(=O)CN1CCN(S(=O)(=O)N2CCOCC2)CC1 | inactive: 12.2%
99 | Cc1ccc(NCc2ccc(O)c3ncccc23)cc1 | inactive: 12%
100 | Cc1cnc(CNC(=O)c2ccc(OC3CCN(C(=O)C4CC4)CC3)cc2)cn1 | inactive: 0.509%
101 | COc1ccc(NC(=O)CCCNC(=O)Cn2cnc3sc(C)c(C)c3c2=O)cc1Cl | inactive: -4.92%
102 | Cc1ccc(-c2csc(NC(=S)NC(=O)c3cccs3)n2)cc1 | inactive: 6.88%
103 | c1ccc(-c2noc(CC3CCCCC3)n2)cc1 | inactive: 6.13%
104 | C=CCc1cc(/C=C2/NC(=O)N(CC(=O)OC)C2=O)cc(OC)c1O | inactive: -0.873%
105 | O=C(CSc1nnnn1-c1cccc(F)c1)NC1CC1 | inactive: -28.2%
106 | O=C(O)C(NS(=O)(=O)c1ccc(F)cc1)c1ccccc1 (stereo not drawn) | inactive: 5.4%
107 | CCOCCCn1c(SCC(=O)NCc2ccc3c(c2)OCO3)nc2ccccc2c1=O | inactive: 7.4%
108 | Cc1ccc(SCC(=O)NCCCc2ccccc2)cc1 | inactive: 29.8%
